# In the supplement of paper PMC10037445:
# In all, about 2,900 compounds were measured (“IRF Lucia reporter activity, fold change vs agonist alone”: median about 0.9, highest 2% from about 2.8 on). Some of the results follow.
# Columns and labels:
# RAW-Dual [1] = test: IRF Lucia reporter activity, fold change vs agonist alone; cytotoxicity flag (confluency mask): not cytotoxic; higher = enhanced IRF activity
# Procedure, shortened: (§1)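 Reporter activity is given as fold change relative to agonist-alone wells. To measure it, 50 nL of library stock was pin-tooled onto RAW-Dual macrophages (50,000 cells/well, DMEM, 384-well plates), a PRR agonist followed 1 h later, and cells stayed at 37 °C, 5% CO2. Twenty hours on, supernatant was assayed for IRF (QuantiLuc luminescence) and NF-κB (QuantiBlue, 620 nm absorbance), and wells under 70% of agonist-control IncuCyte confluency in both mask sets were marked cytotoxic.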
# RAW-Dual [2] = test: IRF Lucia reporter activity, fold change vs agonist alone; higher = enhanced IRF activity; details: cytotoxicity flag (confluency mask): not cytotoxic, agonist: MPLA (TLR4) […]
# Procedure, shortened: as §1
# RAW-Dual [3] = test: IRF Lucia reporter activity, fold change vs agonist alone; cytotoxicity flag (confluency mask): cytotoxic (confluency <70% of control); higher = enhanced IRF activity
# Procedure, shortened: as §1
# [4] = agonist: 3'3'-cGAMP (STING) 10 ug/mL
# [5] = library stock concentration (final ~1000-fold dilution): 10 mM
smiles,measurement,setting,value
O=C(O)c1cc2ccccc2[nH]1 (library stock concentration (final ~1000-fold dilution): 10 mM),IRF Lucia reporter activity,RAW-Dual [1]; [4],1.01
same,IRF Lucia reporter activity,RAW-Dual [1]; agonist: LPS (TLR4) 0.1 ug/mL,0.986
O=C(O)c1cc2ccccc2[nH]1,IRF Lucia reporter activity,RAW-Dual [2]; [5],1.1
CC1(c2cc(-c3cncnc3)c(F)cc2F)CCSC(N)=N1 (stereo unspecified) (library stock concentration (final ~1000-fold dilution): 10 mM),IRF Lucia reporter activity,RAW-Dual [1]; [4],0.823
same,IRF Lucia reporter activity,RAW-Dual [1]; agonist: LPS (TLR4) 0.1 ug/mL,0.805
CC1(c2cc(-c3cncnc3)c(F)cc2F)CCSC(N)=N1 (stereo unspecified),IRF Lucia reporter activity,RAW-Dual [2]; [5],0.717
Cc1cc(Cn2cnc3c2CC(C(=O)O)N(C(=O)C(c2ccccc2)c2ccccc2)C3)ccc1N(C)C (stereo unspecified),IRF Lucia reporter activity,RAW-Dual [2]; [5],1.03
Cc1cc(Cn2cnc3c2CC(C(=O)O)N(C(=O)C(c2ccccc2)c2ccccc2)C3)ccc1N(C)C (stereo unspecified) (library stock concentration (final ~1000-fold dilution): 10 mM),IRF Lucia reporter activity,RAW-Dual [1]; [4],1.03
same,IRF Lucia reporter activity,RAW-Dual [1]; agonist: LPS (TLR4) 0.1 ug/mL,1.02
Cc1ccc(S(=O)(=O)NC(=O)NN2CC3CCCC3C2)cc1 (stereo unspecified),IRF Lucia reporter activity,RAW-Dual [2]; [5],1.04
Cc1ccc(S(=O)(=O)NC(=O)NN2CC3CCCC3C2)cc1 (stereo unspecified) (library stock concentration (final ~1000-fold dilution): 10 mM),IRF Lucia reporter activity,RAW-Dual [1]; [4],1.01
same,IRF Lucia reporter activity,RAW-Dual [1]; agonist: LPS (TLR4) 0.1 ug/mL,0.988
CN1CCCC1CCOC(C)(c1ccccc1)c1ccc(Cl)cc1.O=C(O)/C=C/C(=O)O (stereo unspecified),IRF Lucia reporter activity,RAW-Dual [2]; [5],1.15
CN1CCCC1CCOC(C)(c1ccccc1)c1ccc(Cl)cc1.O=C(O)/C=C/C(=O)O (stereo unspecified) (library stock concentration (final ~1000-fold dilution): 10 mM),IRF Lucia reporter activity,RAW-Dual [1]; [4],0.641
same,IRF Lucia reporter activity,RAW-Dual [1]; agonist: LPS (TLR4) 0.1 ug/mL,1.33
Cc1noc(C)c1-c1ccc2[nH]c(=O)n3c2c1OCC3c1ccccn1 (stereo unspecified) (library stock concentration (final ~1000-fold dilution): 10 mM),IRF Lucia reporter activity,RAW-Dual [1]; [4],0.335
same,IRF Lucia reporter activity,RAW-Dual [1]; agonist: LPS (TLR4) 0.1 ug/mL,0.167
Cl.O=C1C2CCCCC2C(=O)N1CCCCN1CCN(c2nsc3ccccc23)CC1 (stereo unspecified) (library stock concentration (final ~1000-fold dilution): 10 mM),IRF Lucia reporter activity,RAW-Dual [1]; [4],0.434
same,IRF Lucia reporter activity,RAW-Dual [1]; agonist: LPS (TLR4) 0.1 ug/mL,0.881
Cl.O=C1C2CCCCC2C(=O)N1CCCCN1CCN(c2nsc3ccccc23)CC1 (stereo unspecified),IRF Lucia reporter activity,RAW-Dual [2]; [5],0.801
O=C(OC1CC2CC3CC(C1)N2CC3=O)c1c[nH]c2ccccc12 (stereo unspecified) (library stock concentration (final ~1000-fold dilution): 10 mM),IRF Lucia reporter activity,RAW-Dual [1]; [4],0.956
same,IRF Lucia reporter activity,RAW-Dual [1]; agonist: LPS (TLR4) 0.1 ug/mL,1.31
O=C(OC1CC2CC3CC(C1)N2CC3=O)c1c[nH]c2ccccc12 (stereo unspecified),IRF Lucia reporter activity,RAW-Dual [2]; [5],1.03
Cc1nnc(C(C)C)n1C1CC2CCC(C1)N2CCC(NC(=O)C1CCC(F)(F)CC1)c1ccccc1 (stereo unspecified) (library stock concentration (final ~1000-fold dilution): 10 mM),IRF Lucia reporter activity,RAW-Dual [1]; [4],1.04
same,IRF Lucia reporter activity,RAW-Dual [1]; agonist: LPS (TLR4) 0.1 ug/mL,0.853
Cc1nnc(C(C)C)n1C1CC2CCC(C1)N2CCC(NC(=O)C1CCC(F)(F)CC1)c1ccccc1 (stereo unspecified),IRF Lucia reporter activity,RAW-Dual [2]; [5],0.942
CC(C)C(NC(=O)c1ccc2ccccc2n1)C(=O)NC(CC(=O)O)C(=O)COc1c(F)cccc1F (stereo unspecified) (library stock concentration (final ~1000-fold dilution): 10 mM),IRF Lucia reporter activity,RAW-Dual [1]; [4],1.64
same,IRF Lucia reporter activity,RAW-Dual [1]; agonist: LPS (TLR4) 0.1 ug/mL,1.3
CC(C)C(NC(=O)c1ccc2ccccc2n1)C(=O)NC(CC(=O)O)C(=O)COc1c(F)cccc1F (stereo unspecified),IRF Lucia reporter activity,RAW-Dual [2]; [5],1.24
CC(C)CC(NC(=O)C1OC1C(=O)O)C(=O)NCCCCNC(=N)N (stereo unspecified) (library stock concentration (final ~1000-fold dilution): 10 mM),IRF Lucia reporter activity,RAW-Dual [1]; [4],1.16
same,IRF Lucia reporter activity,RAW-Dual [1]; agonist: LPS (TLR4) 0.1 ug/mL,0.804
CC(C)CC(NC(=O)C1OC1C(=O)O)C(=O)NCCCCNC(=N)N (stereo unspecified),IRF Lucia reporter activity,RAW-Dual [2]; [5],1.16
CC(=O)Oc1cccc2c1C(=O)c1c(OC(C)=O)cc(C(=O)O)cc1C2=O (library stock concentration (final ~1000-fold dilution): 10 mM),IRF Lucia reporter activity,RAW-Dual [1]; [4],1.03
same,IRF Lucia reporter activity,RAW-Dual [1]; agonist: LPS (TLR4) 0.1 ug/mL,1.36
CC(=O)Oc1cccc2c1C(=O)c1c(OC(C)=O)cc(C(=O)O)cc1C2=O,IRF Lucia reporter activity,RAW-Dual [2]; [5],1.08
O=c1c2ccccc2nc(/C=C/c2cccnc2)n1Cc1ccccc1 (library stock concentration (final ~1000-fold dilution): 10 mM),IRF Lucia reporter activity,RAW-Dual [1]; [4],0.381
same,IRF Lucia reporter activity,RAW-Dual [1]; agonist: LPS (TLR4) 0.1 ug/mL,0.422
CC(C)(C#N)c1ccc(N2C(=O)OCc3cnc4ccc(-c5cnc6ccccc6c5)cc4c32)cc1 (library stock concentration (final ~1000-fold dilution): 10 mM),IRF Lucia reporter activity,RAW-Dual [1]; [4],0.582
same,IRF Lucia reporter activity,RAW-Dual [1]; agonist: LPS (TLR4) 0.1 ug/mL,0.437
COc1ccc(N2C(=O)/C(=C/c3ccc([N+](=O)[O-])s3)SC2=S)cc1 (library stock concentration (final ~1000-fold dilution): 10 mM),IRF Lucia reporter activity,RAW-Dual [3]; [4],0.0625
same,IRF Lucia reporter activity,RAW-Dual [3]; agonist: LPS (TLR4) 0.1 ug/mL,0.0609
CN(C)c1ccc(-c2nc3c(N4CCN(CC(=O)Nc5nccs5)CC4)c(Cl)cnc3[nH]2)cc1,IRF Lucia reporter activity,RAW-Dual [2]; library stock concentration (final ~1000-fold dilution): 2 mM,0.949
CN(C)c1ccc(-c2nc3c(N4CCN(CC(=O)Nc5nccs5)CC4)c(Cl)cnc3[nH]2)cc1 (library stock concentration (final ~1000-fold dilution): 2 mM),IRF Lucia reporter activity,RAW-Dual [1]; [4],0.0544
same,IRF Lucia reporter activity,RAW-Dual [1]; agonist: LPS (TLR4) 0.1 ug/mL,0.209
O=C1c2ccc(Nc3ccc(F)cc3F)cc2CCc2ccc(OCC(O)CO)cc21 (stereo unspecified) (library stock concentration (final ~1000-fold dilution): 10 mM),IRF Lucia reporter activity,RAW-Dual [1]; [4],0.33
same,IRF Lucia reporter activity,RAW-Dual [1]; agonist: LPS (TLR4) 0.1 ug/mL,1.08
O=C1c2ccc(Nc3ccc(F)cc3F)cc2CCc2ccc(OCC(O)CO)cc21 (stereo unspecified),IRF Lucia reporter activity,RAW-Dual [2]; [5],1.7
CN(C)CCOC(c1ccc(Cl)cc1)c1ccccn1.O=C(O)/C=C\C(=O)O (stereo unspecified),IRF Lucia reporter activity,RAW-Dual [2]; [5],0.953
CN(C)CCOC(c1ccc(Cl)cc1)c1ccccn1.O=C(O)/C=C\C(=O)O (stereo unspecified) (library stock concentration (final ~1000-fold dilution): 10 mM),IRF Lucia reporter activity,RAW-Dual [1]; [4],0.901
same,IRF Lucia reporter activity,RAW-Dual [1]; agonist: LPS (TLR4) 0.1 ug/mL,1.28
O=C(Nc1ncc([N+](=O)[O-])s1)c1ccccc1O,IRF Lucia reporter activity,RAW-Dual [2]; [5],1.03
O=C(Nc1ncc([N+](=O)[O-])s1)c1ccccc1O (library stock concentration (final ~1000-fold dilution): 10 mM),IRF Lucia reporter activity,RAW-Dual [1]; [4],0.685
same,IRF Lucia reporter activity,RAW-Dual [1]; agonist: LPS (TLR4) 0.1 ug/mL,0.856
CN(CCN1CCC(OC(=O)Nc2ccccc2-c2ccccc2)CC1)C(=O)c1ccc(CN2CCC(C(N)=O)CC2)cc1,IRF Lucia reporter activity,RAW-Dual [2]; [5],0.867
CN(CCN1CCC(OC(=O)Nc2ccccc2-c2ccccc2)CC1)C(=O)c1ccc(CN2CCC(C(N)=O)CC2)cc1 (library stock concentration (final ~1000-fold dilution): 10 mM),IRF Lucia reporter activity,RAW-Dual [1]; [4],0.986
same,IRF Lucia reporter activity,RAW-Dual [1]; agonist: LPS (TLR4) 0.1 ug/mL,0.829
